# From PubChem BioAssay AID1745853 (National Center for Advancing Translational Sciences (NCATS), 2022)
# Several values for one entry are separate records, joined by “and”; a condition that tells them apart may be missing. Equal entries are not always repeated. The list shows a part of the results. The main result of the screen is listed elsewhere. These columns were measured beside it and carry no call.
# Legend:
# Test in all cases: Primary Screen for Target Class Profiling of Small Molecule Inhibitors of Methyltransferases
# [1] = target: Glycine N-methyltransferase (Homo sapiens) (UniProt Q14749); settings: purified enzyme, MTase-Glo SAH luminescence; measured here: GNMT inhibition; at 40 µM; stronger effect = lower value
# Summary of the method: (§1)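 Each enzyme was reacted with SAM and its substrate, with compounds tested once at 40 uM; SAH formed was read by MTase-Glo luminescence.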
# [2] = target: Guanidinoacetate N-methyltransferase (Homo sapiens) (UniProt Q14353); settings: purified enzyme, MTase-Glo SAH luminescence; measured here: GAMT inhibition; at 40 µM; stronger effect = lower value
# Summary of the method: as §1
# [3] = target: Histamine N-methyltransferase (Homo sapiens) (UniProt P50135); settings: purified enzyme, MTase-Glo SAH luminescence; measured here: HNMT inhibition; at 40 µM; stronger effect = lower value
# Summary of the method: as §1
# [4] = target: Nicotinamide N-methyltransferase (Homo sapiens) (UniProt P40261); settings: purified enzyme, MTase-Glo SAH luminescence; measured here: NNMT inhibition; at 40 µM; stronger effect = lower value
# Summary of the method: as §1
# [5] = target: Phenylethanolamine N-methyltransferase (Homo sapiens) (UniProt P11086); settings: purified enzyme, MTase-Glo SAH luminescence; measured here: PNMT inhibition; at 40 µM; stronger effect = lower value
# Summary of the method: as §1
# % is set by controls: 0 for no effect and ±100 for the full control effect.
SMILES,"activity change, negative = inhibition [1]","activity change, negative = inhibition [2]","activity change, negative = inhibition [3]","activity change, negative = inhibition [4]","activity change, negative = inhibition [5]"
COCCN1C(=O)N(C)C(=O)C12CCN(CCCOc1ccc(F)cc1)C2 (stereo not drawn),-3.66%,-5.56%,-0.829%,-7.4%,13%
Cc1ccc(N2C(=O)c3cc4ccccc4n3CC2(C)C(=O)NC2CCCC2)cc1Cl (stereo not drawn),2.11%,0%,1.5%,3.37%,0.502%
CCOc1cc(CNC(=O)c2cc3n(n2)CC(C)(C(=O)NCc2ccc(F)cc2)N(C)C3=O)ccc1OC (stereo not drawn),1.99%,4.42%,-7.51%,6.21%,4.51%
N[C@@H](CCC(=O)N[C@H](CSN=O)C(=O)NCC(=O)O)C(=O)O,0.772%,12.7%,9.72%,-1.18%,5.71%
O=c1[nH]ccc2c(S(=O)(=O)N3CCCNCC3)cccc12,–,2.67%,–,-6.15%,2.89%
Cn1cc(-c2ccc3ncc(Cc4ccc5ncccc5c4)n3n2)cn1,-25%,-9.43%,-21%,-28.1%,-19.8%
CCOc1ccc(CN2C(=O)c3cc4occc4n3CC2(C)C(=O)NC2CCCCCC2)cc1 (stereo not drawn),-5.59%,0.571%,-2.73%,-4.53%,-4.79%
O=C(CCn1ccc2cc(S(=O)(=O)N3CCCCC3)ccc21)NC1CCCCC1,3.81%,0%,-1.62%,2.55%,1.45%
Cc1ccc(Cn2c(=O)c3ccccc3n3c(SCC(=O)NCc4ccccc4)nnc23)cc1,-3.09%,1.06%,3.82%,-9.52%,-1.4%
COC(=O)c1cc2n(n1)CC(C)(C(=O)NC1CCCC1)N(c1cc(Cl)ccc1C)C2=O (stereo not drawn),5.06%,0%,-4.85%,10%,7.38%
O=C(NC1CCCC1)C1c2sc3ccccc3c2CC(=O)N1CCc1ccc(Cl)cc1 (stereo not drawn),-2.69%,7.39%,-1.91%,-2.29%,-2.14%
COc1ncccc1-c1cc(-c2cn[nH]c2)c2cncn2c1,-17.9%,-2.94%,-6.5%,-14.5%,-13.4%
CCc1ccccc1NS(=O)(=O)c1cc2c(cc1Cl)n(C)c(=O)n2C,13.7%,0.579%,0.726%,4.72%,10.3%
CCOc1ccc(CCNS(=O)(=O)c2ccc3[nH]c4c(c3c2)CCCC4)cc1OCC,-3.28%,-0.718%,-12.9%,-7.39%,-6.17%
COc1cccc(CNC(=O)C(C)n2ccc3cc(S(=O)(=O)N4CCCCC4)ccc32)c1OC (stereo not drawn),3.19%,0%,6.55%,-1.98%,2.96%
CCc1ccccc1NC(=O)N1CCn2cccc2C1C (stereo not drawn),-3.81%,4.75%,-3.11%,-8.72%,-2.88%
COc1cccc(C(=O)NC2CCN(c3nnc4ccccn34)CC2)c1,-5.44%,-0.08%,3.07%,-5.36%,10.5%
OC[C@H]1O[C@@H](n2cnc3c2NC=NC[C@H]3O)C[C@@H]1O,6.44%,1.21%,1%,-11.2%,-1.64%
C1=C(c2cc(-c3ccncc3)cn3cncc23)CCOC1,-37.6%,-20.2%,-20.4%,-30.8%,-46.9%
COc1ccccc1N1CCN(c2nc3c(S(=O)(=O)c4ccccc4)nnn3c3ccccc23)CC1,5.62%,0%,1.91%,6.45%,2.35%
O=C(CCc1nnc2n(Cc3ccccc3)c(=O)c3ccccc3n12)NCc1ccccc1,-7.78%,5.02%,2.66%,6.13%,-0.807%

SMILES,"activity change, negative = inhibition [1]","activity change, negative = inhibition [2]","activity change, negative = inhibition [3]","activity change, negative = inhibition [4]","activity change, negative = inhibition [5]"
COc1ccc(OC)c(CN2C(=O)c3nc4ccccc4n3CC2(C)C(=O)NCc2ccccc2)c1 (stereo not drawn),1.18%,0%,3.61%,7.09%,-0.832%
CC(C)CCNC(=O)C1(C)Cn2nc(C(=O)NCc3ccccn3)cc2C(=O)N1C (stereo not drawn),7.74%,0%,8.46%,8.85%,5.57%
O=C(NCc1cccnc1)C1CN(S(=O)(=O)c2ccccc2)CC12CCCCC2 (stereo not drawn),-0.337%,-0.045%,-1.19%,-2.51%,-1.11%
Cc1onc(-c2c(Cl)cccc2Cl)c1C(=O)N[C@@H]1C(=O)N2[C@@H]1SC(C)(C)[C@@H]2C(=O)O,-3.84%,-4.99%,6.53%,-18%,3.13%
Cc1ccc(NC(=O)N2CCn3cccc3C2C(C)C)cc1C (stereo not drawn),16.8%,1.19%,10.8%,7.72%,9.75%
CC1(C(=O)NC2CCCCCC2)Cn2c(cc3occc32)C(=O)N1CCc1ccccc1 (stereo not drawn),3.09%,1.53%,5.96%,4.42%,2.71%
COCCOCc1nc(C2CCNCC2)no1,-1%,-1.72%,-1.24%,-2.79%,-0.906%
COc1ccccc1CN1C(=O)c2cc3sccc3n2CC1(C)C(=O)NC1CCCC1 (stereo not drawn),-18.2%,4.53%,0.057%,-7.33%,-0.45%
COc1ccccc1Oc1ncccc1CNCc1c(F)cccc1Cl,-5.86%,-5.82%,-8.07%,-18.1%,-33.2%
CN(C1CCc2nn(CC3CC3)c(=O)n2CC1)S(=O)(=O)c1ccc(C#N)cc1 (stereo not drawn),-4.74%,-1.86%,-0.714%,-2.73%,-1.94%
C[C@@]12C[C@]3(O)O[C@H](O1)[C@]1(COC(=O)c4ccccc4)[C@H]3C[C@@]12O[C@@H]1O[C@H](COC(=O)c2ccccc2)[C@@H](O)[C@H](O)[C@H]1O,0%,0.941%,-2.77%,-11.6%,2.85%
COc1cccc(CC(=O)N2CC[C@@H](NC(=O)c3cnccn3)[C@H](O)C2)c1,-5.55%,-6.36%,-4.46%,-15.1%,-9.01%
CCC(C)NC(=O)Cn1nc2n(Cc3ccc(C)cc3)c(=O)c3ccc(C(=O)NC(C)C)cc3n2c1=O (stereo not drawn),-2.36%,3.6%,-0.641%,-0.094%,1.52%
COc1ccc(NC(=O)CSc2nnc3n(C)c(=O)c4ccc(C(=O)NC5CCCC5)cc4n23)cc1,-1.42%,0%,4.55%,5.19%,5.58%
Cc1ccc(CN2CC(=O)N(Cc3ccccc3F)c3ccccc3S2(=O)=O)cc1,-7.72%,-1.13%,-11.2%,-16.7%,-9.92%
CCCCCNc1nc2c(-c3cccc(C)c3)nnn2c2ccccc12,0.841%,1.08%,-1.55%,-1.09%,-2.06%
COc1ccccc1CNC(=O)C1c2c(n(C)c3ccccc23)SCC(=O)N1C1CCCCC1 (stereo not drawn),12.5%,0%,4.93%,0.45%,6.78%
CCNC(=O)[C@@H]1C[C@H](NC(=O)Cc2cccc(F)c2F)CN1C1CCCC1,-0.003%,2.06%,-0.453%,4.03%,-0.503%
O=C(COC(=O)C(Cc1c[nH]c2ccccc12)NC(=O)c1ccco1)c1ccc(Br)cc1 (stereo not drawn),-8.98%,4.3%,-6.95%,-8.92%,-2.87%
Cc1cn(C2C=CC(CO)O2)c(=O)[nH]c1=O (stereo not drawn),-3.58%,–,-1.54%,–,–
CCCS(=O)(=O)N1CCC(F)(c2nc(CC(C)C)no2)CC1,0.655%,-0.212%,1.61%,-3.13%,-0.426%

SMILES,"activity change, negative = inhibition [1]","activity change, negative = inhibition [2]","activity change, negative = inhibition [3]","activity change, negative = inhibition [4]","activity change, negative = inhibition [5]"
C=Cc1ccc(Cn2nc3n(CCC(C)C)c(=O)c4ccc(C(=O)NCC(C)C)cc4n3c2=O)cc1,7.58%,0.381%,11.1%,6.49%,7.31%
CC(C)N(C(=O)c1ccccc1-c1ccc(CS(C)(=O)=O)cn1)C(C)C,-3.31%,-4.4%,-0.793%,-4.27%,-4.09%
OC1CC(c2cc(N3CCC(c4nc5ccccc5[nH]4)CC3)ncn2)C1 (stereo not drawn),-3.32%,-3.27%,-23.7%,-11.3%,4.97%
CN(C)Cc1nnc(C2CC(NC(=O)Cc3c(F)cccc3Cl)C2)n1C (stereo not drawn),-4.6%,-5.21%,-3.04%,-7.03%,-5.19%
CCOC(=O)[C@H](CCc1ccccc1)N[C@@H](C)C(=O)N1Cc2ccccc2C[C@H]1C(=O)O,–,3.48%,–,-13.2%,-0.856%
CCc1ccc(NS(=O)(=O)c2ccc3[nH]c4c(c3c2)CCCC4)cc1,-1.55%,0%,5.07%,1.67%,2.88%
NC1(C(=O)N[C@@H](CCO)c2ccc(Cl)cc2)CCN(c2ncnc3[nH]ccc23)CC1,-3.03%,0.859% and -5.08%,6.04%,-42.7% and -43%,-8.88% and -16.6%
Cc1cc(C)cc(N2C(=O)c3ccc(-c4ccco4)n3CC2(C)C(=O)NCc2ccc(Cl)cc2)c1 (stereo not drawn),-16.2%,0%,5.5%,6.6%,3.98%
CC(CCc1ccccc1)NCC(O)c1ccc(O)c(C(N)=O)c1 (stereo not drawn),4.88% and 6.13%,5.05% and 11.4%,9.14% and 4.18%,-13% and -3.88%,-0.238% and 3.16%
COc1ccc(CCNC(=O)c2cc3n(n2)CC(C)(C(=O)NCc2ccc(F)cc2)N(C)C3=O)cc1OC (stereo not drawn),-16.9%,4.39%,3.33%,3.04%,2.08%
CCC(CC)NC(=O)c1ccc2c(c1)N(S(C)(=O)=O)CC2,-0.1%,0.543%,1.29%,-0.465%,3.91%
CC1CCC(NC(=O)Cn2c(=O)oc3cc(S(=O)(=O)N4CC(C)CC(C)C4)ccc32)CC1 (stereo not drawn),-7.66%,4.18%,-4.76%,-16.1%,-14.7%
COC(=O)c1[nH]c(=O)c2ccccc2c1-c1ccc[nH]1,2.98%,4.7%,12.6%,-10.2%,8.1%
CC(=O)N1CC2(CCN(CCCn3ccnc3C)CC2)CC1C(=O)O (stereo not drawn),-3.54%,2.69%,-2.55%,-0.177%,-0.452%
COC(=O)c1cc(OC)cc(OC)c1C(=O)c1c(OC)cc2c(c1O)C1CCCC(C)(O2)O1 (stereo not drawn),0.015%,8.05%,10.6%,-7%,5.32%
Cc1ccc(C)c(C(=O)Cn2nc3n(C(C)C)c(=O)c4ccc(C(=O)NC5CCCCC5)cc4n3c2=O)c1,4.28%,1.53%,12.8%,0.279%,5.39%
CC1CC(OC(=O)C(O)c2ccccc2)CC(C)(C)C1 (stereo not drawn),-2.58%,3.35%,-2.36%,-13.1%,-9.52%
Cc1ccc(C(=O)N2CCCC2C(=O)N2CCCC2c2nc3ccncc3[nH]2)cc1 (stereo not drawn),-0.57%,3.52%,2.45%,-2.79%,16.7%
CC(C)c1ccc(S(=O)(=O)N2CCCN(C)c3ccccc32)cc1,-13.4%,-7.5%,-9.55%,-19.5%,-18.1%
O=S(=O)(NCc1cccnc1)c1ccc(Cl)c(-c2nnc(-c3ccccc3)o2)c1,-7.25%,1.86%,-4.46%,-10.3%,-4.68%
